B1: LINE1-mini (parent)
chain: GGCAGAGCUCAACACAGCGUGGCAAAGUGGCUGUGGCUAGACUGCC

The source gives no read counts; variants with many changes may rest on few reads.

Variants of B1 are the subject of the data set. Nature of the data set: self-cleavage, relative activity (ratio to wild type); higher = more cleavage; in vitro, sequencing; the parent is a self-cleaving ribozyme.
In the case of GGCAUAGCUUAACACAGUUUGGCAAAGUGGCUGUGGCUAGACUGCC, the self-cleavage was 0.03.

As to GGCAUAGCUAAACACAGAGUGGCAAAGUGGGUGUGGCUAGACUGCC, the self-cleavage stood at 0.01.

On to GGCAUAGCUCAACAAAGCGUGGCAAAGUGGCUGUGUCUAGACUACC, for which the self-cleavage was 0.02.

Take GGCAUAGUUCAACAGAGCGUGGUAAAGUGGCAGUGGCUAGACUGUC: the self-cleavage worked out at 0.11.

On to GGCAUAGCUUAACACAGCGUGGCAAAGUGGCUCUGGCUAGACCGCC, for which the self-cleavage came out at 0.01.

As to GGCAUAGCUCAAAACAACGUGGCAAAGUGGCUGUGGCUACACUGAC, the self-cleavage worked out at 0.03.

Consider GGCAUAGCUCAACAGAGCGUGACAAAGUGGCUGUGGCUAGACUACC, for which the self-cleavage is 0.03.

Regarding GGCAUAGCUCAACAAAGCGUGGCAAAGUGGCUGUGGUUAGACUGCC, the self-cleavage turned out to be 0.02.

Regarding GGCAUAGCUCAAUACAGCGUGGCAAAGUGGAUGUACCUGGACUGCC, the self-cleavage came to 0.06.

On to GGCAUAGUUCAACACAGCGCGGCAAAGUGGCUGUGGCUAUACUGCC, for which the self-cleavage was 0.02.

In the case of GGCAUAGCUCAAUACAGCGUGGCAAAGUGGCCGUGGCUAGACUGCC, the self-cleavage was found to be 0.05.

Consider GGCAUAGCUCAACAAAGCAUGGCAAAGUGGCUGUGGCUAGACUGCC, for which the self-cleavage was 0.02.

With GGCAUAGCUUAAUACAGCGUGGCAAAGUGGCUCUGGCUUGACUGCC, the self-cleavage was 0.04.

GGCAUAGCUAAACACAGCAUGGCAAAGUGGCUGUGGCUCGACUGCC: the self-cleavage is 0.02.

For the variant GGCAUAGCUCAACAUAGCGUGGCAAAGUGGAUGUAGGUAGACUGCC, the self-cleavage was 0.

For GGCAUAGCUCAACAAAGCGUGGCUAAGUGGCUGUGGCUAGACUGCC, the self-cleavage stood at 0.06.

As to GGCAUAGCUUAACACAGCGUGGCAAAGUGGCUGUGGUUAGACUGCU, the self-cleavage stood at 0.04.

Turning to GGCAUAGCUCAACAUAGCGUGGCAAAGUGGCUGUGGCUAGACUACC, the self-cleavage turned out to be 0.09.

On to GGCAUAGCUAAACACAGCCUGACAAAGUGACUGUGGCUAGAAUGCC, for which the self-cleavage worked out at 0.01.

Consider GGCAUAGCUCAACAGAGCGUGGAAAACUGGAUGUGGCUAGACUGCC, for which the self-cleavage was determined as 0.03.

Turning to GGCAUAGCUCAAAGCAGCGUGGCAAAGUGGCUGUAGCUAGACUGCC, the self-cleavage is 0.08.

As for GGCAUAGCUCAAUACAGCGUGGCAAAGUGGAUGUGGCUAGACUGCC, the self-cleavage was determined as 0.02.

For the variant GGCAUAGCUCAACAUAGCGUGGCAAACUGGCUGAGGCUAGACUGCC, the self-cleavage worked out at 0.03.

Regarding GGCAUAGCUCAAUCCAGCGUGGCAAAGUGGCUGUGGCUAGACUGCC, the self-cleavage was 0.01.

On to GGCAUAGCUGAACACAGUGUGGCAAAGUGGCUGUGGCUAGACUGCC, for which the self-cleavage came to 0.05.

With GGCAUAGCUCAAACCAGCGUGGCAAAGUGGCUGUGGCUAGACUGCC, the self-cleavage turned out to be 0.04.

With GGCAUAGCUUAAUCCAGCGUGGCAAAGUGGCUGUGGCUAGACUGCC, the self-cleavage was 0.02.

For the variant GGCAUAGCUCAACAAAGCGUGGCAAAGUGGCUGCUGAUAGACUGCC, the self-cleavage amounted to 0.05.

GGCAUAGCUGAACAAAGCGUGGCAAAGUGGCUGUCGCAAGACUGCC: the self-cleavage turned out to be 0.

With GGCAUAGCUGAACACAGCGUGGCAAAGUGGGUGAGGCUAGACUGCC, the self-cleavage turned out to be 0.02.

Take GGCAUAGCUAAACACAUCGUGUCAAAGUGGCAGUGGCUAGACUGCC: the self-cleavage came out at 0.03.

For GGCAUAGCUCAAUACAGCACGUCAAAGGGGCUGUGGCUAGACUGCC, the self-cleavage was determined as 0.01.

On to GGCAUAGCUAAACACCGCGUGUCAAUAUGGCUGUGGCUAGACUGCC, for which the self-cleavage turned out to be 0.01.

In the case of GGCAUAGCUCAAGACAGCGUGGCAAAGUGGCUGUGGCCCGACUGCC, the self-cleavage was 0.08.

GGCAUAGCUAAACACAGUGUGCCAAAGUGGCUGUGGCUAGACUGCA: the self-cleavage is 0.01.

For the variant GGCAUAGCUAAACACAGCGUGGCAAAGUGGCUGUGGCUACACUGCC, the self-cleavage came out at 0.02.

As for GGCAUAGCUAAACACAGCGUGGCAAAGUGGCUGUGGCUAUACUGCC, the self-cleavage stood at 0.01.

For the variant GGCAUAGCUCAACAAAGCGUGGGAAAGUGGCUGUGGCCACACUGCC, the self-cleavage was 0.02.

Consider GGCAUAGCUCAACAGAGCGUGGCAAAGUGGCUGUGGCUAGACUGAC, for which the self-cleavage is 0.04.

Consider GGCAUAGCUCAACACAGAGUGGCAACGUGGCUGUGGCUAGACUGAC, for which the self-cleavage is 0.04.

Take GGCAUAGCUACACACAGCGUGGCAAAGUGGCUGUGGCUAGACUGCC: the self-cleavage was determined as 0.04.

Consider GGCAUAGCUCAACAACGCGUGGCAAAGUGGCUGUGGCUAGACUGCC, for which the self-cleavage was found to be 0.02.

As for GGCAUAGCUUAACACAGCGUCGCAAAGUGGCUGUGGCUAGACUGCC, the self-cleavage was determined as 0.19.

Regarding GGCAUAGCUUAACACAGCGUGGCAAAGUGCCUGUGGCUAGACUGCC, the self-cleavage is 0.02.

Turning to GGCAUAGCUUAACACAGCGUGGCAAAGGGGCUGUGGCUAGACUGCC, the self-cleavage came out at 0.04.

GGCAUAGCUAAACACCGCGUGGCAAAGUGGCUGUGGCUAGAUUGCC: the self-cleavage turned out to be 0.01.

GGCAUAGGUCAACACAGCGAGGCAAAGUGGCUGUGGCUAGACUGCC: the self-cleavage turned out to be 0.

For the variant GGCAUAGUUCCACACAGCGUGGCAAAGUGCCUGUGGCUAGACUGCC, the self-cleavage was found to be 0.

With GGCAUAGCUCAAUACAACGUGGCAAAGUGGCUGUGGCUAGCCUGCC, the self-cleavage amounted to 0.01.

GGCAUAGCUAAACACAGCGUGGCAAAGUGGCUAUGGCUAGACUUCC: the self-cleavage worked out at 0.02.

With GGCAUAGCUUAACACACAGUGGCAAAGUGGCUGUGGCUAGACUGCC, the self-cleavage was found to be 0.03.

For the variant GGCAUAGCUAAACACAGCGUGGCAAAGUACCUGUGGCUAGACUGCC, the self-cleavage was 0.02.

With GGCAUAGCUCAACAGAGCGUGGCACAGUUGCUGUGGCUAGACUGCC, the self-cleavage was 0.01.

Regarding GGCAUAGCUCAACAUAGCGUGGCAAAGUGGCUGUGCCUAGACUGCC, the self-cleavage worked out at 0.02.

With GGCAUAGCUCAAGACAGCAUGGCAAAGUGGCUGUGGCUGGACUGCC, the self-cleavage came out at 0.26.

As to GGCAUAGCUCAACAUAGCGUGCCAAAGCGGCGGUGGCUCGACUGCC, the self-cleavage was determined as 0.01.
